# Experimental data taken from PMC4336329 (PLoS ONE, 2015).
# Out of some 310,000 compounds screened, about 14,000 (4.5%) showed an effect of 50% or more. The effect is printed as a negative number. This is one part of the list.
# Molecular target: human ether-à-go-go-related gene (hERG) potassium channel (human, UniProt Q12809)
# Test: primary screen, population patch clamp on CHO cells stably expressing hERG
# 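Further: peak tail current of the secondary pulse compared with the same well before compound.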
# Chain of human ether-à-go-go-related gene (hERG) potassium channel (Q12809 whole entry, looked up): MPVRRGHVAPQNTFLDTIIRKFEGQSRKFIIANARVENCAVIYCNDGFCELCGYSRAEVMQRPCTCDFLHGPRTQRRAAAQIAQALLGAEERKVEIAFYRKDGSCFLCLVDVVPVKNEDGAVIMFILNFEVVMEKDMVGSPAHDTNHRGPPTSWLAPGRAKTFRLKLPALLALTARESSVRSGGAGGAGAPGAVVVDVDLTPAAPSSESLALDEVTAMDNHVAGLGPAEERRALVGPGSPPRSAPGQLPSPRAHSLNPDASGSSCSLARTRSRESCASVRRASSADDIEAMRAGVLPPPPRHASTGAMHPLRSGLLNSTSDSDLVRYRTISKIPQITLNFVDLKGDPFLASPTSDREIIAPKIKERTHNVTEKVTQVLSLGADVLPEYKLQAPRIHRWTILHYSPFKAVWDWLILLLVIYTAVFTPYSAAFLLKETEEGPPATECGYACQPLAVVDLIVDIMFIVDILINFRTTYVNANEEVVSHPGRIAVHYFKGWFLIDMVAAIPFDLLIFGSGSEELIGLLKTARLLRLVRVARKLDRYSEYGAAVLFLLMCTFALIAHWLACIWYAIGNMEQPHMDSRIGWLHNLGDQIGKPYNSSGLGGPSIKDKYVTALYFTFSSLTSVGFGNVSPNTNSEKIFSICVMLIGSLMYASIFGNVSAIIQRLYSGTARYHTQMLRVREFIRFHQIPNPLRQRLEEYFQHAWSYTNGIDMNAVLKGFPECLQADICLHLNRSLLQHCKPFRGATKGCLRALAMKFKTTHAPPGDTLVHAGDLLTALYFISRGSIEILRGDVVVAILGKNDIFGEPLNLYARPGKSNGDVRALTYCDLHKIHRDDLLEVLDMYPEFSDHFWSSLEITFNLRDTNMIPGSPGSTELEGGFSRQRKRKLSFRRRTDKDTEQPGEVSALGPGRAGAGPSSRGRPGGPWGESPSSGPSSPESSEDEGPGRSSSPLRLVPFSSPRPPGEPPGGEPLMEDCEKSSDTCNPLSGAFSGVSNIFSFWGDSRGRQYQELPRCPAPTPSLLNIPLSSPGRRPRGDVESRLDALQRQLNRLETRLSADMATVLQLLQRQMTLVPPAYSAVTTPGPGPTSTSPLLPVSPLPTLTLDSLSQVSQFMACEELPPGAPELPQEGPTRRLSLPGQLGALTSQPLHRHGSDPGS
row,Compound,"hERG current change (%, negative = inhibition) at 10uM"
1,Cc1ccc(CN2CC(C(=O)NC3CCCC(C)C3C)CC2=O)cc1 (centres unmarked),-30.1%
2,Cc1cc(C)c(NC(=O)CN(C)S(=O)(=O)c2ccc3c(c2)n(C)c(=O)c(=O)n3C)c(C)c1,11.6%
3,Cc1cc(N/C=C\C(=O)c2ccc(Cl)c(Cl)c2)no1,5.3%
4,O=C(NCCSc1c[nH]c2ccccc12)c1c(F)cccc1F,-9.73%
5,O=C(COc1nnnc2ccccc12)N1CCCc2ccccc21,-15.1%
6,CC(C)OC(=O)C(CC(=O)O)N1CCOCC1 (centres unmarked),5.39%
7,Cc1cc2c(cn1)C(CCC#N)(CCC#N)c1ccccc1-2,12%
8,O=S1(=O)[C@H]2C[C@@H]3C=C[C@@]2(CN1Cc1cccc(C(F)(F)F)c1)O3,5.74%
9,Cc1cc(C)c2c(c1)-c1cc(C)nn1C(c1ccc3c(c1)OCO3)N2 (centres unmarked),-5.04%
10,CCOc1ccc2nc(N3CCOCC3)nc(C)c2c1,3.2%
11,Cn1c(Cc2ccccc2)n[nH]c1=S,24.8%
12,O=C(NCCCn1ccnc1)c1ccc2nccnc2c1,4.78%
13,CCOC(=O)C1=C(CC)NC2=C(C(=O)CCC2)C1c1ccc(OC)c(OC)c1 (centres unmarked),-8.32%
14,Cn1c(N)c(C(=O)NCc2ccccc2)sc1=S,7.42%
15,CC(=O)NC1CC2CCCC(C1)N2CC(=O)Nc1ccccc1 (centres unmarked),4.65%
16,CC(C)CC(NC(=O)C1CCCCC1)C(=O)NCc1ccccn1 (centres unmarked),17.6%
17,CC(C)Oc1ccc(/C=N/NC(=O)c2nnn(-c3nonc3N)c2CN(C)C2CCCCC2)cc1,-0.892%
18,N#Cc1c(C(F)(F)F)cc(-c2ccc(Cl)cc2)[nH]c1=O,29.2%
19,O=C(NC1CC1)C1=C[C@@H](c2ccc(C(F)(F)F)cc2)C[C@@H](OCc2ccc(CO)cc2)O1,-63.2%
20,CCOC(=O)c1c(-c2ccc(F)cc2)csc1/N=C/N(C)C,2.67%
21,O=[N+]([O-])c1ccc(/C=N/NC(=S)Nc2ccc(Cl)cc2Cl)s1,11.3%
22,CCOc1ccc(CNc2nnnn2C)cc1,14%

row,Compound,"hERG current change (%, negative = inhibition) at 10uM"
1,O=C(NCC1COc2ccccc2O1)c1cccc(S(=O)(=O)N2CCOCC2)c1 (centres unmarked),-26.9%
2,CCCCCNC(=O)c1cccnc1SCC(=O)Nc1ccccc1OC,-65.6%
3,O=C(c1ccc(Cl)c(S(=O)(=O)N2CCCCCC2)c1)N1CCN(c2ccccn2)CC1,-63.6%
4,COc1ccc(C2CC(=O)N3CN(c4ccc(C)c(Cl)c4)CSC3=C2C#N)cc1 (centres unmarked),18.1%
5,O=C(Nc1ccc(Oc2nnc(-c3ccccc3)c3ccccc23)cc1)c1ccccc1,-2.16%
6,Cc1sc2ncnc(NC3CCN(Cc4ccccc4)CC3)c2c1C,-79.6%
7,CCOc1cc(/C=N/N=C2/NC(=O)C(CC(=O)O)S2)ccc1OCc1ccc(Cl)cc1Cl (centres unmarked),18%
8,CCOC(=O)N1CCN(C(=O)c2n[nH]c(=O)c3ccccc23)CC1,3.8%
9,CCOC(=O)C1CCN(Cc2oc(CO)cc(=O)c2O)CC1,-2.99%
10,CCn1c(-c2csc(-c3ccccc3)n2)n[nH]c1=S,13%
11,CCCCCc1cc(=O)oc2c(C(CCN3CCCC3)c3ccc(N(C)C)cc3)c(OC)cc(OC)c12 (centres unmarked),-57.5%
12,Cc1noc(C)c1CSc1nnc(-c2ccncc2)n1-c1cccc(Cl)c1C,-32.1%
13,CSc1cccc(NC(=O)c2ccc(CN3CCc4ccccc4C3)cc2)c1,-1.52%
14,CCOc1ccc(OCC(=O)Nc2ccc(S(N)(=O)=O)cc2)cc1,-7.32%
15,O=C(CP(=O)(c1ccccc1)c1ccccc1)Nc1nc2ccccc2s1,16.1%
16,Cc1cc(=O)oc2c3c4c(cc12)OCCN4CCC3,-20.7%
17,CCOC(=O)C(C)Sc1nc(N)c(NC(=O)c2ccc(OC)c(OC)c2)c(=O)[nH]1 (centres unmarked),-9.72%
18,O=C(CNS(=O)(=O)c1cccc(Cl)c1)Nc1ccc(-c2nc3ccccc3s2)cc1,10.9%
19,Cc1cccc(-n2c(N)c(-c3nc4ccccc4n3C)c3nc4ccccc4nc32)c1,-13.3%
20,O=C(NCc1ccc2c(c1)OCO2)c1ccc(COc2cccc(Cl)c2)o1,2.23%
21,O=C1c2ccccc2S(=O)(=O)N1Cc1nc2ccccc2s1,-5.83%
22,COc1ccccc1CN(C(=O)CNC(=O)c1ccco1)C(C(=O)NCC1CCCO1)c1ccc(OC)c(OC)c1 (centres unmarked),20.8%

row,Compound,"hERG current change (%, negative = inhibition) at 10uM"
1,CC(c1ccccc1)c1nnc(N)s1 (centres unmarked),16.6%
2,CCCCOC(=O)Nc1ccc2c(C)cc(=O)oc2c1,-16.9%
3,COc1ccc(S(=O)(=O)N2CCN(Cc3cccc(Cl)c3)CC2)cc1,-0.0755%
4,Cc1cccc(NC(=O)c2cc(Cl)nc3ccccc23)n1,-31.7%
5,C=C(C)Cn1c(=O)c2c(nc3n2CCCN3Cc2ccccc2)n(C)c1=O,-17.9%
6,N#Cc1c(-c2ccccc2)nc(-c2cccnc2)[nH]c1=O,17.6%
7,CCN(C(=O)COC(=O)c1ccc(Cl)cc1N)C1CCCCC1,-9.34%
8,O=C(Nc1ccc(Cl)cc1)c1ccc2c(c1)OCO2,11.8%
9,CCNC(=S)NN(c1ccccc1)c1ccccc1,-4.36%
10,Cc1ccc(S(=O)(=O)C2C(=O)NC3(C)CC2c2ccccc2O3)cc1 (centres unmarked),-29.9%
11,CS(=O)(=O)c1ccc(Cl)c(NC(=O)COC(=O)CNC(=O)c2cccs2)c1,10.6%
12,CCc1ccc(-c2cc(C)no2)cc1S(=O)(=O)N1CC(=O)Nc2ccccc21,11.5%
13,COc1ccc([N+](=O)[O-])cc1NC(=O)C1CCCNC1=O (centres unmarked),-3.85%
14,Cc1ccccc1NC(=S)NC(=O)c1cc(-c2ccccc2)nc2ccccc12,5.16%
15,CC(=O)OCC(=O)[C@H]1CC[C@H]2[C@@H]3CCC4=CC(=O)CC[C@]4(C)[C@H]3CC[C@]12C,-8.11%
16,CCc1nc(SCC(=O)NC2CCCC2)c2oc3ccccc3c2n1,3.41%
17,Cc1ccc(N2C(=O)c3ccc(C(=O)NCCN4CCOCC4)cc3C2=O)cc1,-6.85%
18,COc1ccc(-c2cn[nH]c2-c2ccc(OCc3ccc(F)cc3)cc2O)cc1OC,13.3%
19,CCOC(=O)C1=C(C(F)(F)F)Nc2ncnn2C1c1cc(OC)c(OC)cc1OC (centres unmarked),3.22%
20,CC(C)c1ccc(OCC(=O)N2CCN(C(=O)c3ccco3)CC2)cc1,-49.1%
21,COc1cccc(C(=O)NNC(=S)NC2CCCCC2)c1,8.31%
22,COc1cc(CN2CCCN(C)CC2)cc([N+](=O)[O-])c1O,21.9%

row,Compound,"hERG current change (%, negative = inhibition) at 10uM"
1,CSc1nc(Sc2cccc(Cl)c2)c2ccccc2n1,6.5%
2,O=C(CCCC1=NS(=O)(=O)c2ccccc2N1)N1CCN(c2ccc([N+](=O)[O-])cc2)CC1,-1.34%
3,Cc1nnc(SCC(=O)Nc2ccc(Br)cn2)[nH]c1=O,9.72%
4,COC(=O)C1CN(C(=O)COc2ccc(Cl)cc2Cl)c2ccccc2O1 (centres unmarked),-2.51%
5,O=C1C(C=Nc2ccc(F)cc2)=C(O)c2ccccc21,6.75%
6,O=C(NC(Cc1c[nH]c2ccccc12)C(=O)O)/C(=C/c1ccco1)NC(=O)c1ccccc1 (centres unmarked),15%
7,COc1ccc(OC)c(S(=O)(=O)Nc2cccc(-c3ccc(N4CCCCCC4)nn3)c2)c1,18.9%
8,O=C(Oc1coc(CSc2nnc(NC(=O)C3CC3)s2)cc1=O)c1c(F)cccc1F,1.38%
9,CCCc1nn2c(=O)c(C(c3ccc(C)cc3)c3c(O)nc4sc(CCC)nn4c3=O)c(O)nc2s1,13.2%
10,CC(=O)Nc1ccc2nc(NC(=O)CN3CCOCC3)sc2c1,18.7%
11,COc1ccccc1NC(=O)C(=O)NCCC1CCCCN1S(=O)(=O)c1ccc(F)cc1 (centres unmarked),3.36%
12,COCCn1c(SCC(=O)NCc2ccccc2)nnc1-c1ccco1,5.7%
13,O=C(COC(=O)Cn1cnc2ccccc21)Nc1cccc([N+](=O)[O-])c1,14.2%
14,CCOC(=O)C1=C(C)N=c2s/c(=C\c3ccncc3)c(=O)n2C1c1ccc2c(c1)OCO2 (centres unmarked),1.94%
15,O=C(NCCCn1ccnc1)/C(=C\c1cccnc1)NC(=O)c1ccco1,-0.164%
16,CC(NC(=O)c1ccc2c(=O)n3c(nc2c1)CCC3)c1ccc(S(N)(=O)=O)cc1 (centres unmarked),5.62%
17,O=[N+]([O-])c1ccc2nc(SCc3cn4ccccc4n3)[nH]c2c1,3.53%
18,COc1cc(S(=O)(=O)NCc2cccnc2)ccc1F,-5.7%
19,O=C(O)c1ccc(-n2cccc2/C=C2/SC(=O)N(CC(=O)N3CCCC3)C2=O)cc1,19.1%
20,COc1ccc(N2C(=O)NC(=O)/C(=C\c3cn(C)c4ccccc34)C2=O)cc1,16.9%
